We go through 62 compounds from PubChem BioAssay AID1508623 (National Center for Advancing Translational Sciences (NCATS), 2021).

In all, about 48,000 compounds went through this assay and about 450 (0.94%) were called active. About 19% were inconclusive and are not listed. Calls come from the whole dose curve; as a rule, active = well fitted inhibition curve with a large enough effect; inconclusive = small, poorly fitted or top-dose-only effect; inactive = no such curve, though single readings can be large or run the other way. This is one part of the list.
Potency is the fitted concentration of half-maximal effect.

This experiment can be described thus: Primary qHTS for Identification of Small Molecule Inhibitors of Huntingtin Promoter Activity. Note: nearly all actives have a fitted effect of over 50% in size. The note with it: HEK293 HTT promoter firefly luciferase reporter (activity 0% = vehicle and -100% = no light), 24 h; series mostly up to 57.5 µM; activity change, negative = inhibition: at the top concentration. A digest of the protocol: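 Firefly luciferase signal from promoter-reporter HEK293 cells was scaled between vehicle (0%) and zero RLU (-100%). Compounds were tested at final concentrations of up to 57.5 uM over 24 h at 37 degrees C. PTC124 at 50 uM final served as control inhibitor.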
With `COc1ccc(C(=O)n2nc(N)c3cc4ccc(C)cc4nc32)cc1OC`, the “activity change, negative = inhibition” value is inactive: 16%.

Regarding `COC(=O)c1cc2oc(C)cc2n1Cc1ccccc1Cl`, the “activity change, negative = inhibition” value is inactive: -19%.

Turning to `Cc1nc2cc(-c3ccccc3)nn2c(C)c1CCC(=O)N1CCN(c2ccc(F)cc2)CC1`, the Potency was active: 2 µM.

As for `CC1CCN(C(=O)c2c(NC(=O)c3ccccc3Cl)sc3c2CCC(C(C)(C)C)C3)CC1` (configuration not stated), the “activity change, negative = inhibition” value was inactive: -11.7%.

Consider `COc1cc(C2CC(=O)N(Cc3cccc(F)c3)c3ccccc3S2)cc(OC)c1OC` (configuration not stated), for which the Potency was active: 20 µM.

Turning to `Cc1cc2nc(-c3ccc(OCc4ccccc4C)cc3)cc(C(F)(F)F)n2n1`, the “activity change, negative = inhibition” value was inactive: 1.02%.

Regarding `Cc1cc(C)cc(-n2ccnc2SCC(=O)Nc2cccc3ccccc23)c1`, the “activity change, negative = inhibition” value was inactive: -28.1%.

On to `CNC(=O)C1CCC(Cn2c(=O)c3sccc3n(Cc3cc(C)ccc3C)c2=O)CC1` (configuration not stated), for which the “activity change, negative = inhibition” value was inactive: 1.69%.

For the compound `COc1ccc(N2C(=O)NC(NS(=O)(=O)c3ccc(Cl)cc3)(C(F)(F)F)C2=O)cc1` (configuration not stated), the “activity change, negative = inhibition” value is inactive: -7.47%.

`Cc1ccccc1-c1nc(CN2CCCC(C(=O)NCc3ccc(Cl)cc3)C2)c(C)o1` (configuration not stated): the “activity change, negative = inhibition” value is inactive: -8.72%.

In the case of `CCN(C(=O)Cn1c(C(=O)OC)cc2sc(Cl)cc21)c1cccc(C)c1`, the “activity change, negative = inhibition” value was inactive: -5.04%.

For the compound `COc1ccc([N+](=O)[O-])cc1NC(c1nnc(-c2ccccc2)o1)c1ccccc1F` (configuration not stated), the “activity change, negative = inhibition” value was inactive: -13%.

For `COc1ccc(C2C(=O)N(C3CCCCC3)CC(=O)N2CCc2ccc(C)cc2)cc1OC` (configuration not stated), the “activity change, negative = inhibition” value was inactive: 8.77%.

In the case of `NC(CS)C(=O)O` (configuration not stated), the “activity change, negative = inhibition” value was inactive: 5.1%.

Regarding `COc1ccc(NC(=O)CCc2c(C)nc3c(c2C)c(=O)n(C)c(=O)n3C)c(OC)c1`, the “activity change, negative = inhibition” value was inactive: -13.9%.

Regarding `CCc1ccccc1NC(=O)Cn1nc2c3cc(F)ccc3n(Cc3cccc(C)c3)cc-2c1=O`, the “activity change, negative = inhibition” value is inactive: -8.73%.

On to `CCOC(=O)c1c(NC(=O)c2cc(-c3ccccc3OC)on2)sc(C)c1C`, for which the “activity change, negative = inhibition” value is inactive: -7.81%.

`CCc1ccc2oc(C(=O)NCC(c3ccc(OC)cc3)N3CCCCC3)c(C)c2c1` (configuration not stated): the “activity change, negative = inhibition” value was inactive: -9.02%.

Consider `Cc1cc(NC(=O)C2CCN(S(=O)(=O)c3c(C)noc3C)CC2)ccc1Br`, for which the “activity change, negative = inhibition” value was inactive: -29.8%.

In the case of `Cc1cc(C)c2nc(N(Cc3cccnc3)C(=O)CCS(=O)(=O)c3ccccc3)sc2c1`, the “activity change, negative = inhibition” value is inactive: 4.97%.

In the case of `COc1ccc(-c2nc3nc(C)cc(C)n3c2Nc2c(C)cccc2C)cc1`, the “activity change, negative = inhibition” value is inactive: -17.8%.

Regarding `COc1ccccc1CNC(=O)C1(c2cccs2)CCOCC1`, the “activity change, negative = inhibition” value is inactive: -2.44%.

Regarding `CCc1ccc(OCC(=O)Nc2ccc3c(c2)c2ccccc2n3CC)cc1`, the “activity change, negative = inhibition” value was inactive: -5.78%.

In the case of `N#Cc1c[nH]n2c(NC3CCCCC3)c(-c3ccc(F)cc3)nc12`, the “activity change, negative = inhibition” value is inactive: -5.52%.

Turning to `Cc1cccc(-n2ccnc2SCC(=O)Nc2cccc3ccccc23)c1`, the “activity change, negative = inhibition” value was inactive: -23.9%.

Take `Cc1cc(C)cc(OCCSc2nc3ccc(NC(=O)c4ccc5c(c4)OCO5)cc3s2)c1`: the “activity change, negative = inhibition” value was inactive: -19.8%.

With `O=C(COc1ccccc1Cl)Nc1ccc(OCc2cc(=O)n3ccsc3n2)cc1`, the “activity change, negative = inhibition” value was inactive: -6.73%.

On to `COc1ccc(NC(=O)Cn2cc(S(=O)(=O)N3CCC(C)CC3)c3ccccc3c2=O)cc1Cl`, for which the “activity change, negative = inhibition” value was inactive: -16.6%.

`COc1ccc2c(c1)c1c(c(=O)n(-c3ccc(C)cc3)c(=O)n1CC(=O)c1ccc(Cl)cc1)n2C`: the “activity change, negative = inhibition” value was inactive: -1.16%.

As for `Cc1ccc(C)c(CNS(=O)(=O)c2ccc3c(c2)C(C)(C)C(=O)N3C)c1`, the “activity change, negative = inhibition” value is inactive: -21.3%.

Consider `CC1CCN(S(=O)(=O)c2ccc3c(c2)N(CC(=O)NCCN(C)C)C(=O)CO3)CC1`, for which the “activity change, negative = inhibition” value was inactive: -6.46%.

On to `CCOc1ccc(C(=O)OCCN(CC)CC)cc1`, for which the “activity change, negative = inhibition” value is inactive: 6.11%.

On to `CCOc1ccc(NC(=O)c2ccc3[nH]c(C)cc(=O)c3c2)cc1`, for which the “activity change, negative = inhibition” value is inactive: -7.58%.

In the case of `COc1ccc2c(CNCCc3ccccc3C)c(C(=O)O)n(Cc3ccccc3C)c2c1`, the “activity change, negative = inhibition” value is inactive: 3.08%.

As for `CCOC(=O)c1c(S(=O)(=O)N2CCCC(C(=O)NCc3ccc(F)cc3)C2)c(C)n(CC)c1C` (configuration not stated), the “activity change, negative = inhibition” value was inactive: -12.6%.

In the case of `Cc1ccc2c(c1)cc1c(=O)n(CC(=O)N(C)c3ccccc3)nc(C)n12`, the “activity change, negative = inhibition” value is inactive: -3.03%.

Consider `COc1cccc(-c2nnc(SCC(=O)N3CCCCC3)o2)c1`, for which the “activity change, negative = inhibition” value was inactive: 51.6%.

On to `O=C(OCc1cc(=O)n2nc(-c3cccs3)sc2n1)c1cccc(Cl)c1`, for which the “activity change, negative = inhibition” value is inactive: -1.81%.

In the case of `OC1CCC(Nc2ncc3nc(Nc4c(F)cc(F)cc4F)n([C@@H]4CCOC4)c3n2)CC1` (some centres not stated), the “activity change, negative = inhibition” value was inactive: -5.32%.

For `CCOC(=O)c1cccc(NC(=O)c2ccc3c(c2)nnn3CC)c1`, the “activity change, negative = inhibition” value is inactive: -18.2%.

As for `Cc1ccc(C)c(Cn2c(=O)n(CC3CCC(C(=O)N4CCOCC4)CC3)c(=O)c3sccc32)c1` (configuration not stated), the “activity change, negative = inhibition” value was inactive: 1.84%.

`Cc1ccc(NC(=O)Cn2c(=O)c(C(F)(F)F)nc3ccccc32)cc1C`: the “activity change, negative = inhibition” value is inactive: 16.1%.

With `CCOC(=O)c1ccccc1NC(=O)Cn1nnc2sc3c(c2c1=O)CCCC3`, the “activity change, negative = inhibition” value is inactive: 4.38%.

Regarding `Cc1ccc(C(C(=O)NC2CCCCC2)N(C)Cc2ccccc2)cc1` (configuration not stated), the “activity change, negative = inhibition” value is inactive: -9.64%.

As to `Cc1oc2c(c1C(=O)Nc1ccc(F)c(F)c1)C1=NCCN1C=N2`, the “activity change, negative = inhibition” value is inactive: -9.04%.

As for `CCc1cccc(CC)c1NC(=O)CCS(=O)(=O)c1ccc(Br)s1`, the “activity change, negative = inhibition” value was inactive: -10.8%.

For the compound `CCOC(=O)c1ccccc1Nc1nc2ccc(C)cc2n2nnnc12`, the “activity change, negative = inhibition” value is inactive: 2.8%.

Regarding `Cc1cccc(C)c1NC(=O)c1nc(S(C)(=O)=O)ncc1N(Cc1ccc(C(C)(C)C)cc1)Cc1ccco1`, the “activity change, negative = inhibition” value is inactive: -32.7%.

As for `Cn1cc(-c2cc3n(n2)CCC(=O)N3CCCC(=O)NCc2ccc(F)cc2)c2ccccc21`, the “activity change, negative = inhibition” value was inactive: -24.5%.

As for `CCOc1ccc(NC(=O)c2oc3ccccc3c2NC(=O)C2CCCCC2)cc1`, the “activity change, negative = inhibition” value was inactive: -11.9%.

As to `Cc1ccc(NC(=O)CSc2nc3nc(C)c(Cc4ccccc4)c(C)n3n2)cc1`, the “activity change, negative = inhibition” value was inactive: 3.64%.

Consider `CC(C)CNC(=O)N1CCN(S(=O)(=O)c2ccc3c(ccn3C)c2)CC1`, for which the “activity change, negative = inhibition” value was inactive: -31.9%.

Regarding `Cc1ccc2oc3c(c(=O)c2c1)C(c1ccccc1F)N(c1ccccn1)C3=O` (configuration not stated), the “activity change, negative = inhibition” value is inactive: -13.6%.

Take `COc1ccc(Cn2ccnc2SCC(=O)Nc2ccc3c(c2)OCO3)cc1`: the “activity change, negative = inhibition” value is inactive: -23%.

On to `COc1ccc(-c2cc(C(F)(F)F)n3nc(C(=O)Nc4cc(C(F)(F)F)ccc4Cl)cc3n2)cc1OC`, for which the “activity change, negative = inhibition” value is inactive: -6.83%.

For the compound `Cc1ccc(NC(=O)N2CC3CCCN3c3ccccc32)cc1C` (configuration not stated), the “activity change, negative = inhibition” value was inactive: -31.8%.

In the case of `COc1ccc(C(=O)Nc2ccc(NC(=O)c3cccs3)cc2)cc1OC`, the “activity change, negative = inhibition” value is inactive: -13.7%.

Turning to `Cc1cccc(C(=O)NCC(c2cccs2)S(=O)(=O)c2cccs2)c1` (configuration not stated), the “activity change, negative = inhibition” value was inactive: -18.1%.

In the case of `Cc1ccc(-c2nc3n(n2)C(c2ccccc2Cl)C=C(c2ccc(Cl)cc2)N3)cc1` (configuration not stated), the “activity change, negative = inhibition” value is inactive: 5.82%.

For the compound `CC1CCN(S(=O)(=O)c2ccc3c(c2)CCN3C(=O)Nc2cccc(Br)c2)CC1`, the “activity change, negative = inhibition” value is inactive: -12%.

On to `CCOC(=O)c1ccc(CN(Cc2ccc(C)cc2)S(=O)(=O)c2ccc(F)c(C(=O)Nc3ccc(C)c(F)c3)c2)cc1`, for which the “activity change, negative = inhibition” value was inactive: -22.7%.

`Cc1ccc(S(=O)(=O)NC2(C(F)(F)F)NC(=O)N(c3ccc(F)cc3)C2=O)cc1` (configuration not stated): the “activity change, negative = inhibition” value was inactive: -12.6%.
